In article PMC6377148 one finds binding data, which are given here for two substances.

Protein sequences, listed by entry. Tags and fused reporters are not part of them.
UniProt P49336: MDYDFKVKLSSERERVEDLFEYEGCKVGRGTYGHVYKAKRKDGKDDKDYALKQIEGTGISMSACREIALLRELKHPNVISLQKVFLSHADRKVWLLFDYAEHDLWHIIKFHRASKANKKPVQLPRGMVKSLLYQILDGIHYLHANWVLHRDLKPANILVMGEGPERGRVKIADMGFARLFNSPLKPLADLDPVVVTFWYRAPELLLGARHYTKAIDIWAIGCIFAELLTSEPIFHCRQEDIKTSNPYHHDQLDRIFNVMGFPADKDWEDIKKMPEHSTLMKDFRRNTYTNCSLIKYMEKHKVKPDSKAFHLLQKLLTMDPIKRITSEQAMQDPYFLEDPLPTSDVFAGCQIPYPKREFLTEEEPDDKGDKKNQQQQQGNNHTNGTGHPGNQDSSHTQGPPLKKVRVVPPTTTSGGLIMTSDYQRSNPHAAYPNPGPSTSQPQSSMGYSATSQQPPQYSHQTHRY
UniProt Q7Z2Z1: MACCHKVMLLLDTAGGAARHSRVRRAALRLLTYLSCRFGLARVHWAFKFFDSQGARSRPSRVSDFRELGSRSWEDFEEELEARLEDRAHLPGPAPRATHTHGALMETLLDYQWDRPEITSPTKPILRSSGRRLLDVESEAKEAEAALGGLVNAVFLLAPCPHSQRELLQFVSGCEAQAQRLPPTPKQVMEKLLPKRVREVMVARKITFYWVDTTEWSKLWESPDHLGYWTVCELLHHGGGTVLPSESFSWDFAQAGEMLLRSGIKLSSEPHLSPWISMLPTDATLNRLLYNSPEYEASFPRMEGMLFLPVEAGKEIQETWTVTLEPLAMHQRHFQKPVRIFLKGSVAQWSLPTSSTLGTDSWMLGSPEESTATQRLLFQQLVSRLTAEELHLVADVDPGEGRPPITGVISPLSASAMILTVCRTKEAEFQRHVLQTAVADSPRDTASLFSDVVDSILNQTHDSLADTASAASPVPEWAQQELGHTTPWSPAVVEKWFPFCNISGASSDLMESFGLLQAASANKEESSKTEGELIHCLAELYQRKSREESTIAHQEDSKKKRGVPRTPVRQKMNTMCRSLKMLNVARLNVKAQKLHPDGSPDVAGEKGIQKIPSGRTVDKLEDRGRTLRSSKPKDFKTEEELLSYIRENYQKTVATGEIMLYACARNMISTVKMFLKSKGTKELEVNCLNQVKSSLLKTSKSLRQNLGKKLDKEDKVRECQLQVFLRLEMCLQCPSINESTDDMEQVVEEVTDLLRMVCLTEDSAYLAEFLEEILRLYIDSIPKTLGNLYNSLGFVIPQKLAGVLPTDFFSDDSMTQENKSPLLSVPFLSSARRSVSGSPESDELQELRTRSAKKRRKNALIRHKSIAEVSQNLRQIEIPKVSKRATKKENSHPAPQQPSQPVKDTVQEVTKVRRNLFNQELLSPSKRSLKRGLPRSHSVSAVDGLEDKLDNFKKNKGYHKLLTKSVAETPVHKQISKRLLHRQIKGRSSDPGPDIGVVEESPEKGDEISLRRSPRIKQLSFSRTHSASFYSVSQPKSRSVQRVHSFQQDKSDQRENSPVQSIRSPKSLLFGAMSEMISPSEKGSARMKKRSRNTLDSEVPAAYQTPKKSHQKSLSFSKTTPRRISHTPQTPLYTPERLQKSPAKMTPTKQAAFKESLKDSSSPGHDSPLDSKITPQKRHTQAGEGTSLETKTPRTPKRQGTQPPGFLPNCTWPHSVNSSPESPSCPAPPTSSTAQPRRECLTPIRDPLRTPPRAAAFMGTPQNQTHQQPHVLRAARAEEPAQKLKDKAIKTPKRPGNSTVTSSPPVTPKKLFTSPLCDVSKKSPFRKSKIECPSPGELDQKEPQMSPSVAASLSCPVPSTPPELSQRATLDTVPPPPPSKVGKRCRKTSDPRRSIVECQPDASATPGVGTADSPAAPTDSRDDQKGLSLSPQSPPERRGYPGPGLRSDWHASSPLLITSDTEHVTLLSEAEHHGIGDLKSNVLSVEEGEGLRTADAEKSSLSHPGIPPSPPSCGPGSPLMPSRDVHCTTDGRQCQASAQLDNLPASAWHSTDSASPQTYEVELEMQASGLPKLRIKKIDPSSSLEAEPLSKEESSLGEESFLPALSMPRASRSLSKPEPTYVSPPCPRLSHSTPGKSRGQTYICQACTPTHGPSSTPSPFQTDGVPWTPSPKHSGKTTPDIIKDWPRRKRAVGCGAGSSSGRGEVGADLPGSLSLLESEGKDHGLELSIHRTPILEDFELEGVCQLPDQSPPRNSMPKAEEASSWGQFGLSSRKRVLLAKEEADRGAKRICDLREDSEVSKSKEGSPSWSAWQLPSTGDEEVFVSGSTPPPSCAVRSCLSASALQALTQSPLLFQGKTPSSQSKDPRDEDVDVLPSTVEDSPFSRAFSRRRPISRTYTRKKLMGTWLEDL

Assay [1] has as its target T1, MTBP-WT-3×Flag-TEV2-GFP (HeLa Flip-In T-Rex stable line) (human) (UniProt Q96DY7).
T1 sequence: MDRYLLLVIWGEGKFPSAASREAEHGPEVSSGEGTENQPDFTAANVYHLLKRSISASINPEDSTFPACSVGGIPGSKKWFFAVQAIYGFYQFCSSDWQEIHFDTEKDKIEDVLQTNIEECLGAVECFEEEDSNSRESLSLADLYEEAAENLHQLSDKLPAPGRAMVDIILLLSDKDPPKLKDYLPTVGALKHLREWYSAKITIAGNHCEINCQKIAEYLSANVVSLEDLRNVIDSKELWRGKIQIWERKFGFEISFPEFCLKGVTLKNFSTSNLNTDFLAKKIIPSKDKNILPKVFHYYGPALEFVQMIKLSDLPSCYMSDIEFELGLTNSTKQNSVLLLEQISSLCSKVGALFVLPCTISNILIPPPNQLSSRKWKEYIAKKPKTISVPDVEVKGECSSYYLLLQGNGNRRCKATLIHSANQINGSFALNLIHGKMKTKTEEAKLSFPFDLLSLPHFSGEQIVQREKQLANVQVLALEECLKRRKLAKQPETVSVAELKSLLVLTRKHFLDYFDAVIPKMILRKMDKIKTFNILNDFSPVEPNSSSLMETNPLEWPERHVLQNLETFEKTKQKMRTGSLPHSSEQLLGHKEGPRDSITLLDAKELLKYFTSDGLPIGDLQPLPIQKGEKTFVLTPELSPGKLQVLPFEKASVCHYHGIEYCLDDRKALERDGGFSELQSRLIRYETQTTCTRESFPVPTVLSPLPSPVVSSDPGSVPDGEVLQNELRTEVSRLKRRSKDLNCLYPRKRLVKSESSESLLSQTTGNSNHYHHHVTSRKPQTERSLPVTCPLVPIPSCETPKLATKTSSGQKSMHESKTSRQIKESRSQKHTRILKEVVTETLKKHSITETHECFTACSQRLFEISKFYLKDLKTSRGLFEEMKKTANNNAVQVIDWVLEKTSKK
The assay can be described thus: co-IP; anti-GFP (GFP nanobodies, mock-coupled control beads) IP from native lysates of HeLa Flip-In T-Rex lines expressing MTBP-3×Flag-TEV2-GFP (WT or deletions); endogenous Treslin/TICRR and Cdk8 by immunoblot.

Assay [2] concerns the target T2, MTBP lacking amino acids D2 to S31 (293T) (human) (UniProt Q96DY7).
T2 sequence: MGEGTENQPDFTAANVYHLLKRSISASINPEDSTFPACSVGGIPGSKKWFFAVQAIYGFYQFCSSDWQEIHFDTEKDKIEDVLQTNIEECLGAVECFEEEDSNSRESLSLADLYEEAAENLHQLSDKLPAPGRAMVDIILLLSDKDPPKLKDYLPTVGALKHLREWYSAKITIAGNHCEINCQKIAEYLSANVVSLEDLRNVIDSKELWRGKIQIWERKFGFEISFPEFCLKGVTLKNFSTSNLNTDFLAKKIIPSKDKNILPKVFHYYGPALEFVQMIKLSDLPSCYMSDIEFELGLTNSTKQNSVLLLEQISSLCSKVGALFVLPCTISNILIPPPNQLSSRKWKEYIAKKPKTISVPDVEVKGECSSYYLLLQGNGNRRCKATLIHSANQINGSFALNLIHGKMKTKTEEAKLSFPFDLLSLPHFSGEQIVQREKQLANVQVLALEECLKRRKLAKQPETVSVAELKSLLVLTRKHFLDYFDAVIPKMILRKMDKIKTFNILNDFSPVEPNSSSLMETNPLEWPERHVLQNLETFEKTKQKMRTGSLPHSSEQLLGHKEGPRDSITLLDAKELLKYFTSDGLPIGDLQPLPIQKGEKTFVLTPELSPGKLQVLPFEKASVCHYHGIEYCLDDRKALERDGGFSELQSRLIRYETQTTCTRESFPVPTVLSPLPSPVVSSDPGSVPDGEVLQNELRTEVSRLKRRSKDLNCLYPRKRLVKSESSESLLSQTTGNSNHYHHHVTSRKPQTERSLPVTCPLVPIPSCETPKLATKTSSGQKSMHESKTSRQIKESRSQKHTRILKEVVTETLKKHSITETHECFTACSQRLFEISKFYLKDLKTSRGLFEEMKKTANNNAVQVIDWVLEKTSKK
The assay can be described thus: co-IP; 293T transiently transfected, Fig 2B lanes 1–5: lanes 1–3 C-terminally Flag-GFP-tagged MTBP on anti-GFP nanobodies, the other lanes 3×Flag-tagged MTBP on anti-Flag; which lane holds which N-terminal deletion is not told; endogenous Treslin/TICRR and Cdk8 by immunoblot. (In western blotting, separated proteins are transferred to a membrane and probed.)

Assay [3] concerns the target T3, MTBP lacking amino acids D2 to S55 (293T) (human) (UniProt Q96DY7).
T3 sequence: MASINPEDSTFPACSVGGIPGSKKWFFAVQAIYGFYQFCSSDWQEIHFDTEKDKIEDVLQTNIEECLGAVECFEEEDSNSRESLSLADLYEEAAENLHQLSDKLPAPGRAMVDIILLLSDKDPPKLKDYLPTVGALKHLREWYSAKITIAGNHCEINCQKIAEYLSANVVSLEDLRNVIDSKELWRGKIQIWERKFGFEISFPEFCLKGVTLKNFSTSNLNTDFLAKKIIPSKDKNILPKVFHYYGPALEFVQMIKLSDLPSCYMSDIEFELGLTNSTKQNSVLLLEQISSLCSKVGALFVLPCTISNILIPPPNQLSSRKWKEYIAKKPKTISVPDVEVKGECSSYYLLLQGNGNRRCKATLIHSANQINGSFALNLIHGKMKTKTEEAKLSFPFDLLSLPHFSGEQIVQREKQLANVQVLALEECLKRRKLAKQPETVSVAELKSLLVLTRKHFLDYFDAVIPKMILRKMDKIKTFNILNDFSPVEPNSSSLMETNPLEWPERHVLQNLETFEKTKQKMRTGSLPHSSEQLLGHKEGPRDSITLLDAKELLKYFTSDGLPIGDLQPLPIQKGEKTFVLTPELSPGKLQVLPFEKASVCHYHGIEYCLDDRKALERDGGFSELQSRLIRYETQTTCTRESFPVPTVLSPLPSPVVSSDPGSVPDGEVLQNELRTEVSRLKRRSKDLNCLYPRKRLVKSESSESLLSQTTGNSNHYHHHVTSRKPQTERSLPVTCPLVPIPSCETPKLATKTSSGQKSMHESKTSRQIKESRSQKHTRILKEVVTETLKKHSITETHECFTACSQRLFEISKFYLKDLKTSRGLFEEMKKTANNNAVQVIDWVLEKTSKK
Described as above.

These are yes or no findings as the source states them, for the method shown. Binding seen in cells or lysates may run through a third protein. Some entries that bind do so weakly or less than the wild type. For some of these results: Tags and fused reporters may be left off the sequences shown.

As to “Cdk8 (cyclin-dependent kinase 8), endogenous (from UniProt P49336 1-464) (enzyme)”, the binding result in assay [1] is “binds”.
Regarding “Treslin/TICRR (TopBP1-interacting replication stimulating protein/TopBP1-interacting checkpoint and replication regulator), endogenous (from UniProt Q7Z2Z1 1-1910)”, the binding entry in assay [1] is recorded as “binds”; in assay [2] it was “no binding”; in assay [3] it was “no binding”.
